Assay results taken from PubChem BioAssay AID488969 (Vanderbilt High Throughput Screening Facility, 2010).
The full ranking holds about 110,000 compounds; the median of “z-score” is about -0.1, and the highest 2% start at about 2. This is one part of the list. Active and inactive are the calls of the source.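 The calls were made as follows: active = z-score in the third read window above 3 or below -3; inactive = the rest.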

The molecules below were run against Metabotropic glutamate receptor 8 (Rattus norvegicus) (UniProt P70579) (assay: rat mGluR8 modulators via GIRK flux, primary screen, cell-based, thallium flux, HTS (AID 488969)). Conditions: HEK293 rat mGluR8, GIRK (G protein-gated inwardly rectifying potassium channel) thallium flux, FluoZin2; at 10 µM; stronger effect = higher value; submaximal glutamate (EC20) added with thallium.
UniProt P70579, sequence (P70579 whole entry, looked up): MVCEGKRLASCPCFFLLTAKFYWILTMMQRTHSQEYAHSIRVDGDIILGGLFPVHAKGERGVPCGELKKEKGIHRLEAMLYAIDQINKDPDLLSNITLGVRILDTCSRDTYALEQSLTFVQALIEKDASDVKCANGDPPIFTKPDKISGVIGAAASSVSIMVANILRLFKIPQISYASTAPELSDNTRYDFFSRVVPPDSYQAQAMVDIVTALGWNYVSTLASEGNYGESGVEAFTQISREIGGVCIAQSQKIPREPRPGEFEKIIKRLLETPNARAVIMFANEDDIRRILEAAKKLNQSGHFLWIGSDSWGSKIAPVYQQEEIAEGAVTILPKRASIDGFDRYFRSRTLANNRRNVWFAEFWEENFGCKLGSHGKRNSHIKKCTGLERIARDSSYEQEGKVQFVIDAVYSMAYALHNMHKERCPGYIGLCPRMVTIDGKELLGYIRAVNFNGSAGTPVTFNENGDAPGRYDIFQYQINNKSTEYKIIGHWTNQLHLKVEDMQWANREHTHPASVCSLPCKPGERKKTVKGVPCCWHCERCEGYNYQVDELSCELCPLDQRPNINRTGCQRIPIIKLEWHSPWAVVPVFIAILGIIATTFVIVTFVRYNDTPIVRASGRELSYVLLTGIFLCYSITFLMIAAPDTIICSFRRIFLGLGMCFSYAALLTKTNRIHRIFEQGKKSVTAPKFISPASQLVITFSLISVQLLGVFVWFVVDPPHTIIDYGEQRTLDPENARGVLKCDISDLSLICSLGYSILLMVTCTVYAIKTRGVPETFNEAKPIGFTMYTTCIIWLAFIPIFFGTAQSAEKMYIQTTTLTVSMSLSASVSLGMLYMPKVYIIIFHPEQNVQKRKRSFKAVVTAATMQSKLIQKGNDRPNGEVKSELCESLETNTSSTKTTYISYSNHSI
With `CC1=NN(C(=O)Cc2ccc([N+](=O)[O-])cc2)C(O)(c2cccnc2)C1` (stereo not given) the z-score was -0.0359. Work on `COCCn1c(N)c(C(=O)NCc2cccs2)c2nc3ccccc3nc21` yielded a z-score of -1.4. With `Cc1ccc(S(=O)(=O)C(NC(=O)c2ccccc2)=C(Cl)Cl)cc1` the z-score was -0.295. Molecule `Cc1ccc(/C=C/c2nc3ccccc3c(=O)n2CCc2ccccc2)cc1` has a z-score of -0.19. Molecule `CC(C)OCCCNS(=O)(=O)c1ccc2c(c1)oc(=O)n2C` has a z-score of -0.0732. With `COc1cccc(C(C(=O)Nc2ccc(F)cc2)N(C(=O)Cn2nnc3ccccc32)C2CC2)c1` (stereo not given) the z-score was 0.374. Molecule `CCOC(=O)C(NC(=O)N1CCCCC1)(c1ccccc1)C(F)(F)F` (stereo not given) has a z-score of 1.12. In the case of `Fc1ccccc1-c1nc(-c2ccc(Cl)cc2)no1`, the z-score is reported as -0.169. `CC(C)COc1ccc(CNC(=S)N/N=C/c2ccc([N+](=O)[O-])cc2)cc1` gave a z-score of -0.147. With `CNC(=O)C1C2C=CC3(O2)C1C(=O)N(C1CC1)C3C(=O)NCc1ccc(OC)cc1` (stereo not given) the z-score was -0.267. Work on `COCCNc1nc2c(c(=O)n(C)c(=O)n2C)n1Cc1cccc(C(F)(F)F)c1` yielded a z-score of -0.367. Molecule `O=C(Oc1ccc([N+](=O)[O-])cc1)c1ccc2ccccc2n1` has a z-score of 0.829. `CC1CC(C)CN(C(=O)c2ccncc2)C1` (stereo not given) was tested, and the z-score was -0.15. In the case of `Cn1cccc1-c1nc2ccccc2n1Cc1ccccc1`, the z-score is reported as -1.27. With `O=C(C#Cc1cccc([N+](=O)[O-])c1)c1ccccc1` the z-score was 0.135. With `CN(C)c1ccc(C2NCCS2)cc1` (stereo not given) the z-score was -0.298. Work on `COc1ccc(C(=O)NCc2n[nH]c(=S)n2-c2ccccc2)cc1OC` yielded a z-score of -0.494. For `Cc1cccc(CC(=O)Nc2cc(C)c3c(=O)oc4ccccc4c3n2)c1`, the z-score was -0.214. `CCc1cc2cccc(C)c2nc1SCC(=O)c1ccc(NC(C)=O)cc1` was tested, and the z-score was active: -4.63. `COc1cc(/C=C2/SC(N)=NC2=O)ccc1Oc1ccc([N+](=O)[O-])cc1[N+](=O)[O-]` was tested, and the z-score was -0.644. `C=CCn1c(SCC(=O)Nc2ccc3c(c2)CCC3)nc2ccccc2c1=O` was tested, and the z-score was -0.136. `CC(C)NC(=O)COC(=O)c1ccc(Cl)c(S(=O)(=O)N2CCCC2)c1` gave a z-score of -0.207. With `c1ccc(CNCc2ccc3c(c2)OCO3)nc1` the z-score was -0.353. Molecule `COCCN(C(=O)CSc1nncn1-c1ccccc1)c1c(N)n(Cc2ccccc2)c(=O)[nH]c1=O` has a z-score of -0.143. In the case of `CC1=C(C(=O)OC(C)C)C(c2ccccc2Cl)CC(=O)N1` (stereo not given), the z-score is reported as -0.853. With `CC1(C)Cc2c(sc3[nH]c(=S)n(Cc4ccccc4)c(=O)c23)CO1` the z-score was active: 14.5. Work on `CCC1=Nc2cc(C(=O)NCc3ccco3)ccc2Sc2ccc(Cl)cc21` yielded a z-score of -0.14. `c1ccc(OCCOc2ccccc2-c2nnco2)cc1` gave a z-score of 1.01. In the case of `Cc1ccc(CCN2C(=O)CCC2(C)C(=O)NCc2cccnc2)cc1` (stereo not given), the z-score is reported as -0.384. `CN(C)CCCNc1cn[nH]c(=O)c1Cl` showed a z-score of -0.383.
